{
  "source": "patent US11178870B2",
  "about": "(priority 2017, dated 2021)",
  "data": [
    {"system": "Colletotrichum orbiculare", "conditions": "in vivo", "values": [
      {"smiles": "Cn1c(-c2c(F)cccc2F)c(-c2cccnc2Cl)ccc1=O", "note": "[Compound 99]", "Test H control value": "H (key: H shows the control value more than 50%; L shows the control value of 50% or less)"},
      {"smiles": "CCn1c(-c2ccccc2Cl)c(-n2cc(C)cn2)cc(Br)c1=O", "note": "[Compound 180]", "Test H control value": "H (key: H shows the control value more than 50%; L shows the control value of 50% or less)"},
      {"smiles": "CCn1c(-c2c(F)cccc2F)c(-c2cnc(NC)o2)cc(Cl)c1=O", "note": "[Compound 134]", "Test H control value": "L (key: H shows the control value more than 50%; L shows the control value of 50% or less)"},
      {"smiles": "CCn1c(-c2c(F)cc(F)cc2F)c(-n2cc(Br)c(C)n2)cc(Br)c1=O", "note": "[Compound 147]", "Test H control value": "L (key: H shows the control value more than 50%; L shows the control value of 50% or less)"},
      {"smiles": "CN1C(=O)CCC(c2cccs2)=C1c1c(F)cccc1F", "note": "[Compound 1]", "Test H control value": "H (key: H shows the control value more than 50%; L shows the control value of 50% or less)"},
      {"smiles": "CCn1c(-c2c(F)cc(F)cc2F)c(-n2cc(OC)cn2)cc(Cl)c1=O", "note": "[Compound 128]", "Test H control value": "L (key: H shows the control value more than 50%; L shows the control value of 50% or less)"},
      {"smiles": "O=c1c(Cl)cc(-c2cccnc2Cl)c(-c2c(F)cccc2F)n1CC(F)(F)F", "note": "[Compound 60]", "Test H control value": "L (key: H shows the control value more than 50%; L shows the control value of 50% or less)"},
      {"smiles": "CCn1c(-c2c(F)cc(F)cc2F)c(-n2cc(Cl)c(C)n2)cc(Br)c1=O", "note": "[Compound 144]", "Test H control value": "L (key: H shows the control value more than 50%; L shows the control value of 50% or less)"},
      {"smiles": "CCn1c(-c2c(F)cc(OC)cc2F)c(-c2cccnc2Cl)cc(Cl)c1=O", "note": "[Compound 80]", "Test H control value": "H (key: H shows the control value more than 50%; L shows the control value of 50% or less)"},
      {"smiles": "Cn1c(-c2c(F)cc(F)cc2F)c(-c2cccnc2Cl)ccc1=O", "note": "[Compound 98]", "Test H control value": "H (key: H shows the control value more than 50%; L shows the control value of 50% or less)"},
      {"smiles": "CCn1c(-c2c(F)cc(F)cc2F)c(-n2cc(C)cn2)cc(Cl)c1=O", "note": "[Compound 85]", "Test H control value": "H (key: H shows the control value more than 50%; L shows the control value of 50% or less)"},
      {"smiles": "CCn1c(-c2c(F)cccc2F)c(-c2ccsc2Br)ccc1=O", "note": "[Compound 44]", "Test H control value": "H (key: H shows the control value more than 50%; L shows the control value of 50% or less)"},
      {"smiles": "CCn1c(-c2ccccc2Cl)c(-n2ncc(C)c2Cl)cc(Br)c1=O", "note": "[Compound 181]", "Test H control value": "H (key: H shows the control value more than 50%; L shows the control value of 50% or less)"},
      {"smiles": "CCn1c(-c2ccccc2Br)c(-n2cc(Cl)cn2)ccc1=O", "note": "[Compound 183]", "Test H control value": "H (key: H shows the control value more than 50%; L shows the control value of 50% or less)"},
      {"smiles": "CCn1c(-c2c(F)cc(OC)cc2F)c(-n2cc(Cl)cn2)cc(Br)c1=O", "note": "[Compound 73]", "Test H control value": "H (key: H shows the control value more than 50%; L shows the control value of 50% or less)"},
      {"smiles": "CCn1c(-c2c(F)cc(F)cc2F)c(-n2cnc(Cl)c2Cl)cc(Br)c1=O", "note": "[Compound 139]", "Test H control value": "H (key: H shows the control value more than 50%; L shows the control value of 50% or less)"},
      {"smiles": "CCn1c(-c2ccc(OC)cc2Cl)c(-n2cc(Cl)cn2)cc(Cl)c1=O", "note": "[Compound 159]", "Test H control value": "H (key: H shows the control value more than 50%; L shows the control value of 50% or less)"},
      {"smiles": "CCn1c(-c2c(F)cc(OC)cc2F)c(-c2oc(Cl)nc2Cl)cc(Cl)c1=O", "note": "[Compound 114]", "Test H control value": "H (key: H shows the control value more than 50%; L shows the control value of 50% or less)"},
      {"smiles": "CCn1c(-c2c(F)cccc2F)c(C2OCCCO2)cc(Cl)c1=O", "note": "[Compound 11]", "Test H control value": "L (key: H shows the control value more than 50%; L shows the control value of 50% or less)"},
      {"smiles": "O=c1c(Cl)cc(-n2cc(Cl)cn2)c(-c2c(F)cc(F)cc2F)n1CC(F)F", "note": "[Compound 110]", "Test H control value": "L (key: H shows the control value more than 50%; L shows the control value of 50% or less)"},
      {"smiles": "CCn1c(-c2c(F)cccc2F)c(-n2ncc(C)c2Cl)ccc1=O", "note": "[Compound 153]", "Test H control value": "H (key: H shows the control value more than 50%; L shows the control value of 50% or less)"},
      {"smiles": "CCn1c(-c2c(F)cccc2F)c(-c2cccnc2Cl)cc(I)c1=O", "note": "[Compound 65]", "Test H control value": "H (key: H shows the control value more than 50%; L shows the control value of 50% or less)"},
      {"smiles": "CCN1C(=O)CCC(c2ccsc2)=C1c1c(F)cccc1F", "note": "[Compound 4]", "Test H control value": "H (key: H shows the control value more than 50%; L shows the control value of 50% or less)"},
      {"smiles": "Cn1c(-c2c(F)cc(F)cc2F)c(-c2cccnc2Cl)cc(Cl)c1=O", "note": "[Compound 100]", "Test H control value": "H (key: H shows the control value more than 50%; L shows the control value of 50% or less)"},
      {"smiles": "CCn1c(-c2c(F)cc(OC)cc2F)c(-c2oc(Br)nc2Br)cc(Cl)c1=O", "note": "[Compound 116]", "Test H control value": "H (key: H shows the control value more than 50%; L shows the control value of 50% or less)"},
      {"smiles": "CCn1c(-c2ccc(F)cc2Br)c(-n2cc(Cl)cn2)ccc1=O", "note": "[Compound 164]", "Test H control value": "H (key: H shows the control value more than 50%; L shows the control value of 50% or less)"},
      {"smiles": "CCn1c(-c2ccccc2Cl)c(-n2cc(Cl)cn2)cc(Cl)c1=O", "note": "[Compound 172]", "Test H control value": "H (key: H shows the control value more than 50%; L shows the control value of 50% or less)"},
      {"smiles": "CCn1c(-c2ccc(F)cc2Cl)c(-n2cc(Cl)cn2)cc(Br)c1=O", "note": "[Compound 158]", "Test H control value": "H (key: H shows the control value more than 50%; L shows the control value of 50% or less)"},
      {"smiles": "CCOC(=O)c1cncn1-c1cc(Cl)c(=O)n(CC)c1-c1c(F)cc(F)cc1F", "note": "[Compound 129]", "Test H control value": "L (key: H shows the control value more than 50%; L shows the control value of 50% or less)"},
      {"smiles": "CCn1c(-c2ccc(OC)cc2Br)c(-n2cc(Cl)cn2)cc(Cl)c1=O", "note": "[Compound 167]", "Test H control value": "H (key: H shows the control value more than 50%; L shows the control value of 50% or less)"},
      {"smiles": "CCn1c(-c2c(F)cc(F)cc2F)c(-n2cc(C=O)cn2)cc(Cl)c1=O", "note": "[Compound 123]", "Test H control value": "L (key: H shows the control value more than 50%; L shows the control value of 50% or less)"},
      {"smiles": "Cn1c(-c2c(F)cccc2F)c(-c2ccsc2)ccc1=O", "note": "[Compound 15]", "Test H control value": "H (key: H shows the control value more than 50%; L shows the control value of 50% or less)"},
      {"smiles": "CCn1c(-c2c(F)cc(F)cc2F)c(-n2cc([N+](=O)[O-])cn2)cc(Cl)c1=O", "note": "[Compound 161]", "Test H control value": "L (key: H shows the control value more than 50%; L shows the control value of 50% or less)"},
      {"smiles": "CCn1c(-c2c(F)cc(OC)cc2F)c(-n2cc(Cl)c(C)n2)cc(Br)c1=O", "note": "[Compound 146]", "Test H control value": "H (key: H shows the control value more than 50%; L shows the control value of 50% or less)"},
      {"smiles": "CCn1c(-c2c(F)cc(F)cc2F)c(-n2ncnc2I)cc(Cl)c1=O", "note": "[Compound 48]", "Test H control value": "H (key: H shows the control value more than 50%; L shows the control value of 50% or less)"},
      {"smiles": "Cn1c(-c2c(F)cccc2F)c(-c2cccs2)ccc1=O", "note": "[Compound 14]", "Test H control value": "L (key: H shows the control value more than 50%; L shows the control value of 50% or less)"},
      {"smiles": "CCn1c(-c2c(F)cccc2F)c(-c2cnc(I)o2)cc(Cl)c1=O", "note": "[Compound 92]", "Test H control value": "L (key: H shows the control value more than 50%; L shows the control value of 50% or less)"},
      {"smiles": "CCn1c(-c2c(F)cc(F)cc2F)c(C2OCCO2)cc(Cl)c1=O", "note": "[Compound 9]", "Test H control value": "H (key: H shows the control value more than 50%; L shows the control value of 50% or less)"}
    ]}
  ]
}
